From PubChem BioAssay AID1963576 (National Center for Advancing Translational Sciences (NCATS), 2024)
About 60 (0.1%) of roughly 46,000 compounds were called active. About 3% were inconclusive and are not listed. Calls come from the whole dose curve; as a rule, active = well fitted inhibition curve with a large enough effect; inconclusive = small, poorly fitted or top-dose-only effect; inactive = no such curve, though single readings can be large or run the other way. The list shows a part of the results.

Test: Primary qHTS assay for Inhibitors of ovarian cancer metastasis using an organotypic tumor microenvironment (TME) model.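 For activity change, negative = inhibition: plate controls were DMSO wells for no effect and tomatine positive control wells for full effect.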 Note: nearly all actives have a fitted effect of over 65% in size.
Conditions: SKOV3ip1-GFP adhesion/invasion on 3D omental model, fluorescence; series mostly up to 45.8 µM; activity change, negative = inhibition: at the top concentration
How it was run: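 A 3D layer of primary human omental fibroblasts, mesothelial cells, fibronectin and collagen I, grown 48 hr, received SKOV3ip1-GFP cells in serum-free medium plus compounds at 0.36-46 umol/L. After 2 hr RT and 16 hr 37 C, fixed adherent GFP cells were counted; normalized to DMSO and tomatine.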

outcome, inactive:
CCOc1cc(C(=O)Nc2ccc(S(=O)(=O)Nc3cc(OC)nc(OC)n3)cc2)cc(OCC)c1OCC
CN(Cc1ccco1)S(=O)(=O)c1nnc(NC(=O)c2cccc(Cl)c2)s1
CCCN(CCC)C(=O)c1cc2c(=O)n3cccc(C)c3nc2n1C
Cc1ccc(-c2nnc(Nc3ccc(S(N)(=O)=O)cc3)c3ccccc23)cc1S(=O)(=O)N1CCCCC1
CN(C)c1ccc(C(CNC(=O)c2c(F)cccc2Cl)N2CCOCC2)cc1 (centres undefined)
Cc1ccc(NC(=O)CN2C(=O)C3(SCC(=O)N3c3ccc(F)c(F)c3)c3ccccc32)c(C)c1 (centres undefined)
CN1C(=O)C2(SCC(=O)N2c2ccc(F)cc2)c2ccccc21 (centres undefined)
COc1cc(OC)cc(C(=O)Nc2ccc3oc(-c4cccc5c(Br)cccc45)nc3c2)c1
COc1ccc(-n2c(=O)c3c4c(sc3n3c(SCCC(C)C)nnc23)COC(C(C)C)C4)cc1 (centres undefined)
COc1ccc(N2CCN(C(=O)c3cc(S(=O)(=O)N4CCC(C)CC4)cn3C)CC2)cc1
Cc1cccc(NC(=O)CCNS(=O)(=O)c2cccc3nsnc23)c1C
CCOc1ccccc1N(CC)C(=O)c1noc2c1COc1ccc(C)cc1-2
O=C(c1ccc(F)cc1)n1nc(-c2ccccc2)nc1NCc1ccco1
CCn1cc(C(=O)NCCc2ccc(Cl)cc2)c(=O)c2cc(S(=O)(=O)N3CCC(C)CC3)ccc21
COc1ccc(-n2ccnc(NCc3ccc(C)cc3)c2=O)cc1OC
O=C(c1ccccc1)N(Cc1ccco1)Cc1cccs1
Cc1cccc(C(=O)Nc2ccc(C(=O)OCc3cc(=O)n4nc(CC(C)C)sc4n3)cc2)c1
CCn1c(C)c(C)c2cc(C(=O)NCc3cccc(C)c3)ccc21
COc1ccc(OCC(=O)N2CCN(C(=O)c3cccc(OC)c3)CC2)cc1
CCc1ccccc1NC(=O)CCS(=O)(=O)c1cccc2nonc12
COc1cccc(CNC(=O)CCc2c(C)c3cc4c(C)coc4c(C)c3oc2=O)c1
CCOC(=O)Cn1c(=O)n(C2CCCCC2)c2nc(-c3cccc(OC)c3)nc(C(N)=O)c21
Cc1cccc(C(=O)NCC(=O)OCc2cc(=O)n3nc(C4CC4)sc3n2)c1
COc1ccccc1N1CCN(C(=O)c2cc3ccc4ccc(C)[nH]c4c3n2)CC1
Cc1ccc(CNC(=O)Cn2c(=O)n(-c3cccc(Cl)c3)c(=O)c3sc4ccccc4c32)cc1
Cc1ccc(Cl)cc1NS(=O)(=O)c1cc2c3c(c1)CC(=O)N3CCC2
Cc1c2cnn(-c3ccccc3)c(=O)c2c(C)n1CC(=O)NCc1ccccc1
COc1cc2c(c(OC)c1)C(c1cc(OC)c(OC)c(OC)c1)CC(=O)N2 (centres undefined)
O=C(c1ccc(CS(=O)c2ccccc2Cl)o1)N1CCN(c2cccc(Cl)c2)CC1 (centres undefined)
CC(CNC(=O)CCCn1c(=O)c2cccn2c2cccnc21)c1ccccc1 (centres undefined)
CCOc1cccc2sc(N(CCN(CC)CC)C(=O)c3ccco3)nc12
Cc1ccc2c(c1)c(=O)c1ccccc1n2CCCC(=O)Nc1c(F)cccc1F
CCC(=O)N1CCc2cc(S(=O)(=O)CCC(=O)NCc3cccc(OC)c3)ccc21
Cc1cc(Br)ccc1NC(=O)C1CCN(S(=O)(=O)c2ccc(Br)s2)CC1
CCOc1ccc(NC(=O)CCS(=O)(=O)c2ccc(Br)cc2)cc1

Activity change, negative = inhibition, inactive:
COC(=O)c1ccc(Cn2c(SCC(=O)N(C)c3ccccc3)nc3ccccc32)cc1 6.65%
CCCCc1ccc(NC(=O)c2ccc3c(c2)CCN3S(=O)(=O)c2ccccc2)cc1 10.2%
Cc1ccc(C)c(OC(=O)CSc2nnc(-c3ccc4c(c3)OCO4)o2)c1 4.87%
Cc1ccc2cccc(NC(=O)c3ccc(-c4cccc(Cl)c4)o3)c2n1 3.66%
CC(C)C(NS(=O)(=O)c1ccc2c(c1)oc(=O)n2C)C(=O)NCCc1ccc(Cl)cc1 (centres undefined) 2.51%
Cc1ccc(NC(=O)Cn2c(=O)oc3cc(S(=O)(=O)N4CCCCCC4)ccc32)cc1Cl -5.2%
Cc1ccc(NC(=O)c2nc(S(C)(=O)=O)ncc2N(Cc2ccco2)Cc2ccco2)cc1C -6.26%
NS(=O)(=O)c1ccc2nc(NC(=O)COc3ccccc3)sc2c1 -4.84%
COc1ccc(CCC(=O)NCCc2csc(-c3ccc(Cl)cc3)n2)cc1 1.64%
COCCNC(=O)CSc1nc(-c2ccccc2C)nc2c1c(=O)n(C)c(=O)n2C 0.615%
Cc1ccc(NC(=O)c2c(C)oc3ccc(O)c(CN4CCCCC4)c23)c(C)c1 0.437%
O=C(O)C[C@H](O)C[C@H](O)C=Cc1c(C2CC2)nc2ccccc2c1-c1ccc(F)cc1 -18.7%
CC(C)(Oc1ccc(Cl)cc1)C(=O)Nc1nc2ccc(S(C)(=O)=O)cc2s1 -0.732%
CCC(=O)N1CCc2cc(Br)cc(S(=O)(=O)CCC(=O)N(CC)Cc3ccccc3)c21 9.03%
Nc1ccn([C@@H]2O[C@H](CO)[C@H](O)C2(F)F)c(=O)n1 -24.7%
CCOCCCNC(=O)C(c1ccc(Cl)cc1)N(Cc1cccs1)C(=O)c1ccc(NC(C)=O)cc1 (centres undefined) 11.8%
CCOc1ccc(OCC)c(NS(=O)(=O)c2cc(-c3onc(C)c3C)ccc2OC)c1 -2.21%
COc1ccc(Cl)cc1NC(=O)NCC1CCN(Cc2ccccc2F)CC1 10.6%
CC(=O)N1CCc2cc(CNS(=O)(=O)c3ccc(Cl)s3)ccc21 -13.1%
CCN1CCN(CCCNC(=O)c2ccc3nc(Cc4ccccc4)oc3c2)CC1 11.8%
COc1ccc(N(CC(=O)N2CCN(c3ccccc3F)CC2)S(=O)(=O)c2c(C)n[nH]c2C)cc1 4.35%
O=C(NC1CCCCC1)c1ccc2c(c1)N(Cc1ccc(Cl)cc1)C(=O)c1ccccc1S2=O (centres undefined) 11.3%
Cc1cccc(N2CCN(c3nc4ccc(C)cc4n4cnnc34)CC2C)c1 (centres undefined) -36%
O=C(NCC(c1ccc2c(c1)OCO2)N1CCOCC1)c1c(F)cccc1F (centres undefined) -4.34%
CCN(C(=O)C1CCN(c2ncnc3c2nc2n3CCCCC2)CC1)c1cccc(Cl)c1 0.511%
COc1ccc(NC(=O)/C=C\C(=O)N(c2ccc(C(C)C)cc2)C(C(=O)NCc2ccco2)c2ccc(F)cc2)cc1 (centres undefined) -2.59%
Cc1nc(N)ncc1-c1nc(N2CCOCC2)c2sc(C(C)(C)O)cc2n1 -28%
CC1(C)CCC[C@@]2(C)[C@@H]1CC[C@@]1(C)OC(=O)C[C@H]21 -7.74%
Cc1ccc(C)c(Cn2c(=O)cc(C)c3c(C)nn(C)c32)c1 -10.7%
COc1ccccc1NC(=O)c1sc2nc(C)c(C(=O)Nc3ccc(C)cc3C)c(-c3ccc(C)o3)c2c1N 8.21%
Cc1ccc(-n2ncc3c(N4CCN(C)CC4)ncnc32)cc1C 6.87%
Cc1cc(C)cc(NC(=O)CCc2c(C)nc3c4cccnc4nn3c2C)c1 10.6%
Cc1cccc(NC(=O)Cc2csc(COc3cccc(C)c3)n2)c1 5.51%
CCOc1ccc(-c2cc3nc(C4CCN(C(=O)OC(C)(C)C)CC4)c(C(=O)Nc4ccc(C)cc4C)cn3n2)cc1 3%
CCOC(=O)C1CCCN(S(=O)(=O)c2csc(C(N)=O)c2)C1 (centres undefined) 4.22%
Cc1cccc(-n2c(SCC(=O)c3ccccc3)nnc2-c2ccc(Br)cc2)c1 -3.43%
CCCNC(=O)N1CCN(S(=O)(=O)c2ccc3c(ccn3C)c2)CC1 -4.08%
CCc1nn2c(=O)c(S(=O)(=O)Nc3cccc(F)c3)c(C)nc2s1 7.59%
CCC(Sc1nc2nccnc2c(=O)n1Cc1ccc(C)cc1)C(=O)NC1CCCCC1 (centres undefined) 1.53%
COc1cccc(CNC(=O)c2ccc(NC(=O)N3CC(C)Sc4ccccc43)cc2)c1 (centres undefined) 0.831%
CCC1CN(C(=O)Nc2ccc(C(=O)O)cc2)c2cc(Cl)ccc2O1 (centres undefined) 0.799%
Cc1ccc2nc(Cl)c3cc(C(=O)NC4CCCCCC4)sc3c2c1 5.93%
O=C(CSc1cn(CC(=O)N2CCCC2)c2ccccc12)Nc1cc(C(F)(F)F)ccc1Cl 9.67%
Cc1cccc(CCNC(=O)C2CCCN(S(=O)(=O)c3ccc4c(c3)oc(=O)n4C)C2)c1 (centres undefined) 0.308%
CC(C)(C)OC(=O)N1CCC(c2c(C(=O)N3CCN(C(=O)c4ccco4)CC3)cnn2-c2ccccc2)CC1 -5.35%
COc1cc(NC(=O)c2ccc(NC(=O)N3CCSc4ncccc43)cc2)cc(OC)c1 1.15%
COc1ccc(CCNC(=O)c2ccc(CNS(=O)(=O)c3ccccc3)cc2)cc1OC -8.13%
CCCS(=O)(=O)c1nc(S(=O)(=O)c2ccc(C)cc2)c(NCc2ccccc2)s1 0.927%
CN(Cc1ccccc1)C(=O)c1cn(C)c2ccc(S(=O)(=O)N(C)C3CCCCC3)cc2c1=O 20.2%
COc1cc(NC(=O)c2c(C)oc3ncnc(N4CCCCC4)c23)cc(OC)c1 -0.396%
COc1ccc(NC(=O)c2c(C)oc3ccc(O)c(CN4CCN(Cc5ccccc5)CC4)c23)cc1 -3.8%
Cc1cccc(Cn2c(SCc3ccc(C(=O)NC4CCCCC4)cc3)nc3ccncc32)c1 -1.7%
COc1ccc(/C=C(/C#N)c2nc(-c3ccc(Br)cc3)cs2)cc1 -2.27%
Cc1ccc(C(=O)COC(=O)CCC(=O)Nc2ccc(Oc3cc(C)ccc3C(C)C)cc2)cc1 5.92%
CCc1ccc(C2=NN(CCC(=O)NCCc3ccc(Cl)cc3)C(=O)CC2)cc1 -2.05%
Cc1ccc(OC(=O)CSc2nnc(CNC(=O)c3ccccc3)o2)cc1 2.57%
CC(=O)N1CCCc2cc(S(=O)(=O)N3CCCC(C(=O)N4CCN(c5cc(C)ccc5C)CC4)C3)ccc21 (centres undefined) -21.8%
Cc1ccc2c(c1)-c1c(cnn1CC(=O)Nc1ccccc1C#N)CO2 4.92%
Cc1c(C(=O)NCCN(C)C)sc2nc3n(c(=O)c12)CCC3 34.8%
